Results from paper PMC4336329 (PLoS ONE, 2015).
About 2,200 (0.71%) of roughly 310,000 compounds showed an effect of 50% or more. The effect is printed as a negative number. Some of the results follow.

These molecules were tested against human ether-à-go-go-related gene (hERG) potassium channel (human, UniProt Q12809) (assay: primary screen, population patch clamp on CHO cells stably expressing hERG).
Sequence of human ether-à-go-go-related gene (hERG) potassium channel (Q12809 whole entry, looked up): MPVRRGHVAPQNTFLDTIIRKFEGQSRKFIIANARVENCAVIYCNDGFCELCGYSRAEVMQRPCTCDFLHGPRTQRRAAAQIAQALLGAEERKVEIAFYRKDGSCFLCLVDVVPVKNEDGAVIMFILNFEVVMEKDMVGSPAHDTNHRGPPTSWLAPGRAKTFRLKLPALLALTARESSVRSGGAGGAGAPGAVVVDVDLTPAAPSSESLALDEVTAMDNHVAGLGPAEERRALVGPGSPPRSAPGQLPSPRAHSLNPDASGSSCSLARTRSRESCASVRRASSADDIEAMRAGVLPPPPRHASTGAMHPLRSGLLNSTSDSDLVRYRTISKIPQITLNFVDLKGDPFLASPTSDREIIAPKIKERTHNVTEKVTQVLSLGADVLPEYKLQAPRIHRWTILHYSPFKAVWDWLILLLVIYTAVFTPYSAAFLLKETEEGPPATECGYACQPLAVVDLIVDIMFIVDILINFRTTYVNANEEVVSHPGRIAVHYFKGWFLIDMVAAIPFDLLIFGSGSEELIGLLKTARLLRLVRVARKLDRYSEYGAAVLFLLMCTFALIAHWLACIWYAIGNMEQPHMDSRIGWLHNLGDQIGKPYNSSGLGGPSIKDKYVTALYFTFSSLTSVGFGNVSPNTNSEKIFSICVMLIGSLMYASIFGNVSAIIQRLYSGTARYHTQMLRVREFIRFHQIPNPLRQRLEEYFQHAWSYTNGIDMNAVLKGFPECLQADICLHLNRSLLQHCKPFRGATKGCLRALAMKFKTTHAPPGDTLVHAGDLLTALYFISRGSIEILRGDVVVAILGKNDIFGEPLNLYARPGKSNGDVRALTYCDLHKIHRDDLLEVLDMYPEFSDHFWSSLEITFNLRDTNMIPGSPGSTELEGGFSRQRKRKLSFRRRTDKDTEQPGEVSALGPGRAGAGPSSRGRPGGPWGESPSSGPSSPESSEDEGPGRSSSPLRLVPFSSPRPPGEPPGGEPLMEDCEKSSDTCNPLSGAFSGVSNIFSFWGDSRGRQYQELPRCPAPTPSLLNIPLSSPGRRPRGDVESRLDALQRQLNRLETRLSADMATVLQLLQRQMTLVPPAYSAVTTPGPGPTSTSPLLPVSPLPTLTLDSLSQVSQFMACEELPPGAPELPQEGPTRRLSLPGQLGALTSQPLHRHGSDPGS

Compound | hERG current change (%, negative = inhibition) at 1uM [%]
COc1ccc(S(=O)(=O)N2CCC(C(=O)O)(c3ccccc3)CC2)cc1 | 15.6
CC(=O)Nc1ccc2nsnc2c1 | 14.9
COc1ccc2c(C)cc(SCn3nnc4ccccc4c3=O)nc2c1 | 8.97
N#Cc1ccccc1Cn1c(=O)n(CCCC(=O)NCc2ccc3c(c2)OCO3)c(=O)c2ccccc21 | -0.975
Cc1ccccc1NC(=O)Cn1nnc(-c2ccc(CN3CCC(C)CC3)cc2)n1 | 0.785
CC(C)OC(=O)C1C(=O)NC2(C)CC1c1ccccc1O2 (centres unmarked) | 20.8
COc1ccc(NC(=O)CN2C(=O)COc3ccc(S(=O)(=O)N4CCCCCC4)cc32)cc1 | 15.1
CCCOc1c(OC)cccc1C1CC(=O)Nc2cc(OC)c(OC)c(OC)c21 (centres unmarked) | 3.27
Cc1ccc(C)n1-c1ccc(-n2cnnn2)cc1 | 7.48
Cl.O=C(CN1CCCC(O)C1)N1c2ccccc2Sc2ccc(C(F)(F)F)cc21 (centres unmarked) | 11.3
CCCCCCCc1ccc(C2NC(=S)NC3=C2C(=O)c2ccccc23)cc1 (centres unmarked) | 8.33
CCOC(=O)[C@@H]1[C@H]2COc3ccccc3[C@H]2N2C(=O)N(c3cccc(Cl)c3)C(=O)[C@@]12C | 24.7
Br.CCOC(=O)CCCc1sc(N)nc1-c1[nH]c(=O)[nH]c1C | 14.9
CCCSc1nc(N2CCCC2)c2c(c1C#N)CC(C)(C)OC2 | 10.1
O=c1[nH]c(N/N=C/c2ccccc2Br)nnc1-c1ccccc1 | 9.67
COc1ccc(NC(=O)CC2SC(=NCc3ccccc3OC)NC2=O)cc1 (centres unmarked) | 10.2
O=C(NCCOc1ccc(Cl)cc1)C1CC(=O)N(c2ccc(F)cc2)C1 (centres unmarked) | -43.8
CCc1ccc(NC(=O)c2cnn3c(C(F)F)cc(C)nc23)cc1 | -7.69
COc1ccc(/C=C(\C#N)C(=O)OCC(=O)NCc2ccccc2Cl)cc1 | 7.24
CC(CNc1nc2ccccc2n2cnnc12)c1ccccc1 (centres unmarked) | 2.21
Cc1ccc(C(CNS(=O)(=O)c2ccc(Cl)cc2)N2CCN(C)CC2)cc1 (centres unmarked) | -42.1
O=C1c2ccsc2SCCN1Cc1c(F)cccc1Cl | 4.77
CN1CCN(CC(=O)Nc2nc3c(s2)CCCC3)CC1 | 11.6

Compound | hERG current change (%, negative = inhibition) at 1uM [%]
COc1ccc(N(CC(=O)NCCC2=CCCCC2)S(=O)(=O)c2ccccc2F)cc1 | 10.4
CCOC(=O)C1=C(C)NC(=O)NC1C(C)C (centres unmarked) | 12.1
O=c1c2ccccc2nc(-c2ccccc2)n1-c1ccccc1 | 10.9
CC[n+]1ccc(C)c2cc(SC(F)(F)F)ccc21.Cc1ccc(S(=O)(=O)[O-])cc1 | 9.51
CC(C)(C)C1CCc2c(sc(NC(=O)c3cc(C4CC4)on3)c2C#N)C1 (centres unmarked) | 7.34
O=C(COC(=O)CNC(=O)c1sc2ccccc2c1Cl)Nc1c(Cl)cc(Cl)cc1Cl | 9.38
Cc1cccc(Cl)c1OCCCn1ccnc1.O=C(O)C(=O)O | 11.5
CN(C(=O)CN1C(=O)S/C(=C\c2ccc(F)cc2)C1=O)C1CCS(=O)(=O)C1 (centres unmarked) | 1.16
Cc1ccc(S(=O)(=O)N2CCN(S(=O)(=O)c3ccccc3)C2c2ccc(N(C)C)cc2)cc1 (centres unmarked) | 13.8
O=[N+]([O-])c1ccc(Nc2ccccc2F)nc1 | 6
CC(=O)c1ccc(N=c2scc(C)n2C(C)C)cc1 | 8.93
COc1ccc(C)cc1NC(=O)CSc1nnc(-c2ccco2)n1Cc1ccco1 | 11.5
COC(=O)CSc1nnc(-c2ccoc2C)n1-c1ccc(C)cc1 | 3.86
Cc1ccc(-c2nnc(CSc3nc4cc5c(cc4cc3C)OCO5)o2)cc1 | 10.1
CCOC(=O)C1=NN(c2ccccc2)C(=O)C1 | 11.1
CCC(C)[C@@H](N)C(=O)N/N=C/c1cccc2nccnc12.Cl (some centres unmarked) | 9.14
CCC(C(=O)NC(C)(C)C)N(Cc1ccc(F)cc1)C(=O)c1snc(C(N)=O)c1N (centres unmarked) | 17.5
Cc1cc(C)cc(N(C(=O)C(F)(F)F)C(C(=O)NC2CCCCC2)c2cccs2)c1 (centres unmarked) | 0.475
Cl.O=C(CN1CCOCC1)c1ccc(Br)cc1 | 13.3
COc1ccc2c(CC(=O)OCC(=O)c3ccccc3OC)coc2c1 | 1.27
Cc1nnc(NCCO)c2ccccc12 | 14.7
CC1(C)CC(=O)N(CC(=O)NCc2ccc(F)cc2)c2ccccc2S1(=O)=O | 3.41
Cc1ccc(-c2nn(C)c(=O)c3ccccc23)cc1CNC(=O)NC1CCCCC1 | 11.1

Compound | hERG current change (%, negative = inhibition) at 1uM [%]
CCCn1c(C)cc(C(=O)COC(=O)c2nccnc2N)c1C | 8.53
COc1ccc(C(=O)NC(=S)Nc2ccc(N3CCCC3)cc2)cc1OC | 11.3
O=C(O)c1ccc(/C=N/NC(=S)NC2CCCCC2)cc1 | 11.3
CCOc1ccc(C(=O)Nc2ccc(CN3CCOCC3)cc2)cc1Br | 0.28
COc1ccc(C2=NOC(Cn3c(Cc4ccc(Cl)cc4)nc4c3c(=O)n(C)c(=O)n4C)C2)cc1 (centres unmarked) | 6.87
COc1ccc2nc(SC(C)C(=O)NC3(C#N)CCCCC3)[nH]c2c1 (centres unmarked) | 8.93
O=C(CCNS(=O)(=O)c1ccc2[nH]c(=O)oc2c1)NCc1ccc(F)cc1 | 17.8
COc1c(/C=N/Nc2nc(N3CCCCC3)nc(N3CCCCC3)n2)cccc1[N+](=O)[O-] | 0.144
CNC(=O)C1(C(F)(F)F)C/C(=C\CCO)CCCO1 (centres unmarked) | 11.4
Cc1cccc(/N=C/C2=C(O)CC(C)(C)CC2=O)n1 | 15.7
CN1CC=C2C(C#N)=C(N)C(C#N)(C#N)C(c3ccsc3)C2C1 (centres unmarked) | 2.18
Cc1cc(C=C2C(=O)N(C)C(=S)N(C)C2=O)c(C)n1C1CCCCC1 | 6.27
CCCSc1nc(C)c(C(C)=O)cc1C#N | 7.88
O=C(NCCCc1ccccn1)C1CCC(=O)N(Cc2cccc(F)c2)C1 (centres unmarked) | 14.3
CC(=O)NCCc1c[nH]c2ccccc12 | 7.32
Cc1cc(C)cc(NC(=O)CCC(=O)N2CCSc3ccccc32)c1 | 6.19
Cc1ccc(S(=O)(=O)NCCC(=O)N2CCCCCCC2)cc1C | -2.26
CCN1CCN(c2cc(C)c3cc(NC(=S)N4CCN(c5ccccc5F)CC4)ccc3n2)CC1 | 13.5
Cc1ccc(NC(=O)C2CCN(S(C)(=O)=O)CC2)c(C)c1 | 14
Cc1cc(N2CCN(c3ccccc3)CC2)nc(N)n1.Cl | -15.6
CC(C)CNC(=S)N1CCC(C(=O)c2ccc(F)cc2)CC1 | -5.66
COc1cccc(-c2nn(-c3ccccc3)cc2C(=O)OCC(=O)Nc2ncc(Cl)cc2Cl)c1 | -7.33
Cc1nn(Cc2c(F)cccc2Cl)c(C)c1[N+](=O)[O-] | 14.3

Compound | hERG current change (%, negative = inhibition) at 1uM [%]
O=C(CNc1cccc(Cl)c1)c1ccc(Br)cc1 | 17.7
CC1CC(C)CN(C(=O)CCn2c(=O)oc3ccccc32)C1 (centres unmarked) | 9.67
O=C(COC(=O)CNC(=O)c1ccc(Br)cc1)NCCC1=CCCCC1 | 16.8
O=C(N/N=C/c1ccc(OCC(=O)N2CCCCC2)cc1)c1ccccc1 | 14.2
COc1ccc(Cl)cc1N(C(=O)c1ccco1)C(C(=O)NC1CCCC1)c1cccnc1 (centres unmarked) | 4.1
Cc1ccc(S(=O)(=O)NCCC(=O)N2CCN(S(=O)(=O)c3ccccc3)CC2)cc1C | 10.8
COc1ccc(/C=N/NS(=O)(=O)c2ccccc2)cc1OC(=O)c1ccc(C)cc1 | 12.8
O=C(O)c1nc(-c2ccccc2)n(-c2ccccc2)n1 | 7
CCCCOC(=O)Nc1cc(Cl)ccc1C | 11.2
COc1ccccc1C(=O)NC(CCSC)C(=O)NCCCSc1ccccc1 (centres unmarked) | 1.92
Cc1nc(-c2nc(-c3c(C(=O)NN)noc3C)cs2)cs1 | 14.6
O=C(OCc1cc(=O)n2c(n1)sc1ccccc12)c1ccc(O)cc1 | 17.3
Nn1c(Cc2cccc3ccccc23)nnc1SCC(=O)NC1CCS(=O)(=O)C1 (centres unmarked) | 15.2
CCOC(=O)C1CCCN(S(=O)(=O)c2ccc(F)c(C(=O)Nc3ccc(F)c(F)c3)c2)C1 (centres unmarked) | -14.8
Cc1ccc(NC(=O)COc2coc(CN3c4ccccc4CC3C)cc2=O)c(C)c1 (centres unmarked) | -0.863
COc1ccc(S(=O)(=O)Nc2cccc(SC)c2)cc1C(=O)N1CCOCC1 | 16.1
COc1c(Cl)cc(C(=O)NN)cc1Cl | 1.37
CC(=O)c1cc(C#N)c(SCc2ccccc2)nc1C | 17.9
CC1=CC2=NC(=O)CC(C)(C(=O)N(CC(=O)NC3CCCC3)c3ccccc3F)N2C=C1 (centres unmarked) | 19.2
Cc1ccc(CSc2nnc(-c3ccco3)o2)cc1 | 14.4
